# Data taken from the supplement of paper PMC3334620.
# The full ranking holds about 33,000 sequences; the median of “E-score (-0.5 to 0.5)” is about -0.041, and the highest 2% start at about 0.37. Some of the results follow.
# Biological target: T1, Ecm22 (UniProt Q05958)
# T1 sequence: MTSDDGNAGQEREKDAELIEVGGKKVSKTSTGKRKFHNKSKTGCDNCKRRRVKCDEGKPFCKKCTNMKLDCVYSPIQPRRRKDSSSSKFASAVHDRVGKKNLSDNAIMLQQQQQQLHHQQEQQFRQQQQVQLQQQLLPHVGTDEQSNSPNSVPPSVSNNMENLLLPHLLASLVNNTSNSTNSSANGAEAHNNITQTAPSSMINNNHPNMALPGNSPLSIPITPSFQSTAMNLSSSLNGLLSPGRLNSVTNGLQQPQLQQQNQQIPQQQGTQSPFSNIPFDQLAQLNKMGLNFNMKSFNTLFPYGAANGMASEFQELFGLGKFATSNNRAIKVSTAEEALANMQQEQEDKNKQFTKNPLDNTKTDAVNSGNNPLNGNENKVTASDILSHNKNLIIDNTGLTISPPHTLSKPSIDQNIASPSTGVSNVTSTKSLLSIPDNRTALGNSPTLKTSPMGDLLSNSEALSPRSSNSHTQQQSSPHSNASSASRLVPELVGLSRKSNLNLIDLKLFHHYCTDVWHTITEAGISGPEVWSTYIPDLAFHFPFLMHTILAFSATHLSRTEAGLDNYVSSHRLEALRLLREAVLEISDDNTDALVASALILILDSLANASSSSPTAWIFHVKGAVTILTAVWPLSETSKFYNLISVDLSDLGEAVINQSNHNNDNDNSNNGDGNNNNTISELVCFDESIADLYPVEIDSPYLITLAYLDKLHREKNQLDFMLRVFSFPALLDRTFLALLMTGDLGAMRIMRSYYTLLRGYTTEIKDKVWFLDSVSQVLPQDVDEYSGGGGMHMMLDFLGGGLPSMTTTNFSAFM
# Assay: PBM E-score (8-mer binding enrichment) (E-score (-0.5 to 0.5)); higher = stronger / more preferred TF binding; most listed sequences are background and not binding sites
# Conditions: protein concentration: 200 nM; construct: GST-full length
# Method in brief: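 Yeast transcription factors carrying a GST tag, as full-length proteins or DNA-binding domains, were produced by PURExpress in vitro transcription/translation. About 100-200 nM protein was applied to universal all-10-mer Agilent arrays, double-stranded by primer extension on fresh or once-stripped slides. Bound protein was detected with fluorescent anti-GST, and scans were normalised with masliner. The Universal PBM Analysis Suite gave each ungapped eight-base word, pooled with its reverse complement, an E-score, a modified Wilcoxon-Mann-Whitney statistic.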
row,Sequence,PBM E-score
1,GAGTACGC,-0.0338
2,GCAGAGAC,-0.357
3,ACTGCATC,0.0594
4,CGGTTAAA,0.18
5,GAGGTTGA,-0.0744
6,ATTATAAA,0.172
7,CCTAGCGA,-0.192
8,AGGGAGGC,0.0703
9,ACTCGCGG,0.0816
10,ATGTCACG,0.0203
11,CGATGATC,0.154
12,AAGACGAG,0.108
13,GAGGCAAA,-0.073
14,GACGGTGC,0.0887
15,AGCGTTGA,-0.00877
16,GTGGCCAC,-0.0328
17,ATGAGGTG,-0.127
18,TGGACACA,-0.16
19,GCAGGGTA,-0.187
20,AATCCCTG,-0.196
21,ATCGCTCG,0.195
22,ACGATAAC,0.291

row,Sequence,PBM E-score
1,ACTACACT,-0.0856
2,TTTATAAA,0.0727
3,ACTGGAAC,0.141
4,AGTCGATG,0.0205
5,AAGCCAGT,-0.0794
6,CAGCGAAG,-0.148
7,GACCTCAA,-0.231
8,CCCACCGC,0.0306
9,ATCTCCTG,0.0724
10,GCTCGAAA,-0.0416
11,ATTGTTCG,0.26
12,GCACGCCA,-0.225
13,CAACCGAG,0.265
14,GCGGCGCC,0.0346
15,TCTCTAAA,-0.2
16,ATAGAGGC,-0.0274
17,CCATATGA,-0.232
18,ATTCAGGA,-0.0146
19,AGTATCGC,0.148
20,CTTCACGA,-0.139
21,GCATGGTA,-0.0591
22,AAAGAACT,-0.0427

row,Sequence,PBM E-score
1,CTTTTCGA,-0.00257
2,GTATCGAA,0.161
3,TATTCGCA,0.162
4,CGAACAAA,0.2
5,TCTGCCCA,-0.226
6,AGTGCGAT,0.136
7,GGTTCAGA,-0.172
8,GGTTTTGA,-0.124
9,CTTTTGGA,-0.213
10,AGAGGACC,-0.0852
11,TCAATAAA,0.00418
12,CCGATACC,0.0916
13,TCCAGAGA,-0.332
14,CCCTCACA,-0.178
15,ACCATCTC,0.0104
16,CCTCCTGC,-0.32
17,CGCATTAA,0.0561
18,AACCTTGG,-0.202
19,CAACCCAG,-0.252
20,CTGGACAA,-0.161
21,CGACAAAA,0.149
22,ACCACCGA,0.0206

row,Sequence,PBM E-score
1,AATCGGTA,0.211
2,AGTTGGAA,-0.103
3,TCACCTAA,-0.0233
4,GAATGTGA,0.0145
5,CATTCGCA,0.0842
6,GAGAGCTC,-0.0487
7,AGATCCAG,-0.136
8,ATCAGTTC,0.145
9,CTCCACTA,-0.0503
10,AATCGCGT,0.12
11,AGTCGCAA,0.156
12,ATTAATAG,-0.0113
13,CCCACCAA,0.00378
14,AAGGCCCT,-0.24
15,CTCAAAGC,-0.119
16,ACCTTAGC,-0.242
17,CTAGAACA,-0.0457
18,CCGTAAGA,0.164
19,AACCCCGA,-0.202
20,TGAGCGAA,0.268
